{
  "source": "the RNAGym collection of RNA variant scans (doi:10.1073/pnas.2313332121)",
  "parents": {"B1": {"name": "TPR 5TU (parent)", "chain": "GGAUCUUCUCGAUCUAACAAAAAAGACAAAUCUGCCACAAAGCUUGAGAGCAUCUUCGGAUGCAGAGGCGGCAGCCUUCGGUGGCGCGAUAGCGCCAACGUUCUCAACUAUGACACGCAAAACGCGUGCUCCGUUGAAUGGAGUUUAUCAUG"}},
  "note": "Variants at the background level are over-represented here.",
  "data": [
    {"variants_of": "B1", "test": "polymerase ribozyme fitness, log enrichment relative to wild type (log ratio); higher = more active; in vitro selection for triplet polymerase activity", "in_short": "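Mutant libraries were PCR-built and transcribed for each subunit of a heterodimeric triplet polymerase ribozyme and selected for one round in triplicate at −7 °C, frozen, before gel excision of extended constructs and streptavidin-bead capture. Input and output libraries were Illumina-sequenced, keeping genotypes with ≥10 input reads and ≥1 read per output. Fitness is a logarithmic ratio of genotype to wild-type enrichment, in base 2, using inverse-variance-weighted replicate averages.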", "values": [
      {"variant": "C38U U77C C93A C103G", "polymerase ribozyme fitness (log ratio)": "≤ -4.2"},
      {"variant": "C38U G50U C57G C108G A120U", "polymerase ribozyme fitness (log ratio)": "≤ -4.2"},
      {"variant": "C38U U77A G80A", "polymerase ribozyme fitness (log ratio)": "≤ -4.2"},
      {"variant": "C38U U44A A47U G67C C69U G84A", "polymerase ribozyme fitness (log ratio)": "≤ -4.2"},
      {"variant": "A39C G80U G84A C114G C125A", "polymerase ribozyme fitness (log ratio)": "≤ -4.2"},
      {"variant": "A39U C93U", "polymerase ribozyme fitness (log ratio)": -3.36},
      {"variant": "C38U U55A G59C U135C", "polymerase ribozyme fitness (log ratio)": -1.98},
      {"variant": "A39C A49C C96U C125U", "polymerase ribozyme fitness (log ratio)": "≤ -4.2"},
      {"variant": "A39U U56A C93U", "polymerase ribozyme fitness (log ratio)": -3.55},
      {"variant": "A39C C96U C114G C131G", "polymerase ribozyme fitness (log ratio)": "≤ -4.2"},
      {"variant": "C38U C63A A66C U82G G92C A98C G100A A120C C125U", "polymerase ribozyme fitness (log ratio)": "≤ -4.2"},
      {"variant": "C38U U45A G84U C129A A142C", "polymerase ribozyme fitness (log ratio)": "≤ -4.2"},
      {"variant": "A39C A60U C93G A106U C125U", "polymerase ribozyme fitness (log ratio)": "≤ -4.2"},
      {"variant": "A39C C118U A120U", "polymerase ribozyme fitness (log ratio)": -1.81},
      {"variant": "A39C G58C A97U A98C C125U", "polymerase ribozyme fitness (log ratio)": -3.95},
      {"variant": "A39U G59A C69A C79G C96A", "polymerase ribozyme fitness (log ratio)": "≤ -4.2"},
      {"variant": "A39C U56A C57A U77G G94A A119U A137G A138C", "polymerase ribozyme fitness (log ratio)": "≤ -4.2"},
      {"variant": "C38U G50C U56A A66G C69U G86U U90G A91C", "polymerase ribozyme fitness (log ratio)": "≤ -4.2"},
      {"variant": "A39U C43G U61G G71A C85G C103A A107G", "polymerase ribozyme fitness (log ratio)": "≤ -4.2"},
      {"variant": "A39G G42C C43G G50C C85U A89C A115G C132G U146C U148G", "polymerase ribozyme fitness (log ratio)": "≤ -4.2"},
      {"variant": "C38U G48C G92A A142C G143U", "polymerase ribozyme fitness (log ratio)": "≤ -4.2"},
      {"variant": "A39U G84A G100U C103G C105G G141C", "polymerase ribozyme fitness (log ratio)": "≤ -4.2"},
      {"variant": "A39C G86C C87U G126U", "polymerase ribozyme fitness (log ratio)": "≤ -4.2"},
      {"variant": "C38U G126U", "polymerase ribozyme fitness (log ratio)": -0.118},
      {"variant": "C38U C93U A137G U148C", "polymerase ribozyme fitness (log ratio)": "≤ -4.2"},
      {"variant": "A39G A41G A73G G86C G92U", "polymerase ribozyme fitness (log ratio)": "≤ -4.2"},
      {"variant": "A39C C57U C76A G80A C85G", "polymerase ribozyme fitness (log ratio)": "≤ -4.2"},
      {"variant": "A39U A41U U56A C93A C105A G117U A120G G133A", "polymerase ribozyme fitness (log ratio)": "≤ -4.2"},
      {"variant": "C38U C87A U104G", "polymerase ribozyme fitness (log ratio)": "≤ -4.2"},
      {"variant": "A39U A52C U90G A98G", "polymerase ribozyme fitness (log ratio)": "≤ -4.2"},
      {"variant": "A39U A52G G74U U90A A122G C125G C129U", "polymerase ribozyme fitness (log ratio)": "≤ -4.2"},
      {"variant": "A39C C54G C87U G133A A137C G152U", "polymerase ribozyme fitness (log ratio)": "≤ -4.2"},
      {"variant": "C38U G58A U61A U134C", "polymerase ribozyme fitness (log ratio)": -1.57},
      {"variant": "C38U C149U", "polymerase ribozyme fitness (log ratio)": -2.71},
      {"variant": "C38U C79A A107C C114U A142U", "polymerase ribozyme fitness (log ratio)": "≤ -4.2"},
      {"variant": "C38U G86C C99G U109G C129A U148G", "polymerase ribozyme fitness (log ratio)": "≤ -4.2"},
      {"variant": "A39C A40G C93U A97G A107G U134G", "polymerase ribozyme fitness (log ratio)": "≤ -4.2"},
      {"variant": "A39G C96U C116U", "polymerase ribozyme fitness (log ratio)": -1.75},
      {"variant": "A39U U44G U109C", "polymerase ribozyme fitness (log ratio)": "≤ -4.2"},
      {"variant": "C38U U53G C96G", "polymerase ribozyme fitness (log ratio)": -1.73},
      {"variant": "A39G C69A G70A U134C", "polymerase ribozyme fitness (log ratio)": "≤ -4.2"},
      {"variant": "A39G G68A G81C G86C A106U", "polymerase ribozyme fitness (log ratio)": "≤ -4.2"},
      {"variant": "A39C A91U G92A U139G", "polymerase ribozyme fitness (log ratio)": "≤ -4.2"},
      {"variant": "A39C G65C G83C G143A A150U", "polymerase ribozyme fitness (log ratio)": "≤ -4.2"},
      {"variant": "C38U C57A G74U G83C", "polymerase ribozyme fitness (log ratio)": "≤ -4.2"},
      {"variant": "C38U G62A A73G G81A C96G C108U", "polymerase ribozyme fitness (log ratio)": "≤ -4.2"},
      {"variant": "A39U C69U C75U G84U U127G", "polymerase ribozyme fitness (log ratio)": "≤ -4.2"},
      {"variant": "A39U A49U G59C C132U", "polymerase ribozyme fitness (log ratio)": "≤ -4.2"},
      {"variant": "C38U U45A A49C A60G C69U", "polymerase ribozyme fitness (log ratio)": "≤ -4.2"},
      {"variant": "A39C U53C G100U", "polymerase ribozyme fitness (log ratio)": "≤ -4.2"},
      {"variant": "A39U C76U C79A G83U C118A A120C", "polymerase ribozyme fitness (log ratio)": "≤ -4.2"},
      {"variant": "A39G G48U A52U C79G A91C G143A", "polymerase ribozyme fitness (log ratio)": "≤ -4.2"},
      {"variant": "A39G C54G C57A", "polymerase ribozyme fitness (log ratio)": -3.22},
      {"variant": "A39C G46C G71U C93U C116U G140A A147U", "polymerase ribozyme fitness (log ratio)": "≤ -4.2"},
      {"variant": "A39G G94C A110G C125G A150G", "polymerase ribozyme fitness (log ratio)": "≤ -4.2"},
      {"variant": "A39U G46C G48A G50C U56A G84U", "polymerase ribozyme fitness (log ratio)": "≤ -4.2"},
      {"variant": "C38U G86A A137G A147U", "polymerase ribozyme fitness (log ratio)": -2.49},
      {"variant": "A39C C75A C114A C118U", "polymerase ribozyme fitness (log ratio)": "≤ -4.2"},
      {"variant": "A39C A40U U61A A64G C79G G83A C95G C103U G133U", "polymerase ribozyme fitness (log ratio)": "≤ -4.2"},
      {"variant": "A39C G48U G84C", "polymerase ribozyme fitness (log ratio)": "≤ -4.2"},
      {"variant": "A39G U78G G86U C123G U139C", "polymerase ribozyme fitness (log ratio)": "≤ -4.2"},
      {"variant": "A39C A142U", "polymerase ribozyme fitness (log ratio)": -3.34},
      {"variant": "A39C G62A A73U G83C", "polymerase ribozyme fitness (log ratio)": "≤ -4.2"},
      {"variant": "C38U U77G A91G C103U A110C A113G C114U", "polymerase ribozyme fitness (log ratio)": "≤ -4.2"},
      {"variant": "A39G C75G A89U G92C C103A A142U", "polymerase ribozyme fitness (log ratio)": "≤ -4.2"},
      {"variant": "C38U G42A G48C G67A U145G C149A", "polymerase ribozyme fitness (log ratio)": "≤ -4.2"},
      {"variant": "C38U C63U A73G C87U", "polymerase ribozyme fitness (log ratio)": -0.21},
      {"variant": "A39U C57A A137U A142G", "polymerase ribozyme fitness (log ratio)": "≤ -4.2"},
      {"variant": "A39C A41C G65A C96A C103A U111G", "polymerase ribozyme fitness (log ratio)": "≤ -4.2"},
      {"variant": "A39C U45A C85A A91U A98G", "polymerase ribozyme fitness (log ratio)": "≤ -4.2"},
      {"variant": "A39G A89G G92A G141C", "polymerase ribozyme fitness (log ratio)": -3.85},
      {"variant": "A39C A41C G59A G83U C95A C108U", "polymerase ribozyme fitness (log ratio)": "≤ -4.2"},
      {"variant": "C38U C63U A91G C149G", "polymerase ribozyme fitness (log ratio)": "≤ -4.2"},
      {"variant": "A39G A41U C75G C85G U109A", "polymerase ribozyme fitness (log ratio)": "≤ -4.2"},
      {"variant": "A39C C79A C93U U102A", "polymerase ribozyme fitness (log ratio)": "≤ -4.2"},
      {"variant": "A39G G80A G126U A138G", "polymerase ribozyme fitness (log ratio)": "≤ -4.2"},
      {"variant": "C38U U55A C85U", "polymerase ribozyme fitness (log ratio)": -0.272},
      {"variant": "A39C G141U", "polymerase ribozyme fitness (log ratio)": -2.91},
      {"variant": "A39G A52U U56A C75U U78G U104A U144C", "polymerase ribozyme fitness (log ratio)": "≤ -4.2"},
      {"variant": "C38U C95U U130C U139A U145A", "polymerase ribozyme fitness (log ratio)": "≤ -4.2"},
      {"variant": "A39C U53G C85U", "polymerase ribozyme fitness (log ratio)": -4.06},
      {"variant": "A39G C75U A98G C132U C149A", "polymerase ribozyme fitness (log ratio)": "≤ -4.2"},
      {"variant": "A39C C57A C85G A110C G136U", "polymerase ribozyme fitness (log ratio)": "≤ -4.2"},
      {"variant": "C38U C79U A121U C125A G143U", "polymerase ribozyme fitness (log ratio)": -3.92}
    ]}
  ]
}
